PubChem BioAssay AID1345082 (National Center for Advancing Translational Sciences (NCATS), 2018)
The whole screen tested about 94,000 compounds, of which about 4,000 (4.3%) were called active. Inconclusive results, whose numbers are uncertain, are shown with a selection of clear calls. Calls follow the shape of the dose curve; as a rule, active = well fitted inhibition curve with a large enough effect; inconclusive = small, poorly fitted or top-dose-only effect; inactive = no such curve, though single readings can be large or run the other way. Potencies beside an inconclusive call are fits to weak or partial responses and may not hold up.

experiment: Cytotoxic Profiling in NIH 3T3 Cell Line of Diverse Libraries Using Quantitative High-Throughput Screening; details: NIH 3T3 viability, CellTiter-Glo ATP luminescence, 48-72 h; series mostly up to 96.7 µM; also: nearly all actives have a fitted effect of over 55% in size
How it was run: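 ATP-dependent luminescence (CellTiter-Glo) served as the viability signal for NIH 3T3 cells treated with compound for 48 or 72 hr at 37 °C.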
Potency is read from the fitted curve at half-maximal effect; tags tell the direction and shape of the fitted curve.

| SMILES | Potency |
| --- | --- |
| COCCC1(NS(C)(=O)=O)CCN(C(=O)C2(c3ccc(OC)cc3)CC2)CC1 | inactive |
| COc1ccc(CC(=O)N2CCCN(c3cc(-c4ccc(OC)cc4)[nH]n3)CC2)cc1 | inconclusive: 44.7 µM [inhibitor, partial curve, poor fit] |
| COc1ccc(C)cc1-c1nccc2c(=O)cc(-c3cnn(C)c3)oc12 | inconclusive: 25.1 µM [inhibitor, full curve, poor fit] |
| O=C(NCCCn1nnc2ccccc21)C1CC(=O)N(Cc2ccccn2)C1 (stereo not given) | inactive |
| COc1ccc(CN2CCC[C@H]2c2nc(-c3ccnc(N4CCOCC4)c3)no2)cc1 | inconclusive: 56.2 µM [inhibitor, partial curve, poor fit] |
| O=C(NCC(F)(F)F)c1ccc2nnc(-c3cncc(Cl)c3)n2c1 | inactive |
| CCCNc1cc(N2CCC(CCC(=O)N3CCN(c4ccc(F)cc4)CC3)CC2)ncn1 | active: 20 µM |
| CC(C)NC(=O)N1CC(CNC(=O)C2CC2)C2(CCCCC2)C1 (stereo not given) | inactive |
| COc1ccccc1-c1ccc2c(C(=O)N3CCN(Cc4ccccc4)CC3)nn(C)c2n1 | inactive |
| C[C@H]1CCCN1C(=O)c1nnc(CNc2ccccc2Cl)n1-c1ccccc1 | active: 100 µM |
| COc1cccc(CC(=O)N2CCCCCC2c2nnc(-c3ccccc3)o2)c1 (stereo not given) | inactive |
| O=C(Cc1cccs1)N1CCC(n2cc(-c3nc(-c4ccccc4)no3)nn2)C1 (stereo not given) | inconclusive: 44.7 µM [inhibitor, partial curve, poor fit] |
| COC(=O)N1CC(N2C(=O)c3c(c(C)nn3-c3ccccc3)C2C)C1 (stereo not given) | inconclusive: 70.8 µM [inhibitor, single point] |
| COC(=O)[C@@H]1Cc2c([nH]c3ccccc23)[C@H]2C[C@H](NCCc3cnc[nH]3)C[C@@H](c3ccccc3F)N21 | inconclusive: 20 µM [inhibitor, full curve, poor fit] |
| OC(c1nc(Nc2cccc(Cl)c2)n[nH]1)C1CC1 (stereo not given) | inconclusive: 112 µM [inhibitor, partial curve] |
| Cc1cccc(NC(=O)NCC2Cn3cccc3CN2C)c1 (stereo not given) | inconclusive: 56.2 µM [inhibitor, partial curve, poor fit] |
| COc1cccc(-c2cc(C3CCN(C(=O)c4ccc(Br)cc4)CC3)[nH]n2)c1 | inconclusive: 50.1 µM [inhibitor, partial curve, poor fit] |
| CC(=O)NC1(C)CCCN(Cc2ccc(Oc3ccccc3)cc2)C1 (stereo not given) | inconclusive: 89.1 µM [inhibitor, partial curve] |
| CCOc1ccccc1C(=O)NC1CCN(c2cc(-c3ccc(Cl)cc3)[nH]n2)CC1 | inconclusive: 12.6 µM [inhibitor, full curve, poor fit] |
| Cc1cn2nnc(C(=O)NC3CCCCCC3)c2c(=O)[nH]1 | inconclusive: 70.8 µM [inhibitor, partial curve, poor fit] |
| CNC(=O)c1cc(C2CC2)nc2c1c(C1CCCN1C(=O)C1CC1)nn2C (stereo not given) | inactive |
| COc1ccc2cc1Nc1ccc(cc1)C[C@H](NCc1ccncc1)C(=O)N(C)[C@H](C(=O)NCc1ccc(OC(F)(F)F)cc1)C2 | inconclusive: 56.2 µM [inhibitor, partial curve, poor fit] |

| SMILES | Potency |
| --- | --- |
| COc1ccc(F)cc1-c1ccc(CN2CCCCC2C(=O)N2CCN(c3ncccn3)CC2)cc1 (stereo not given) | inconclusive: 44.7 µM [inhibitor, partial curve, poor fit] |
| O=C(Nc1cccc(Cl)c1F)N1CCCC(Cn2c(C3CC3)nc3cccnc32)C1 (stereo not given) | inconclusive: 39.8 µM [inhibitor, partial curve, poor fit] |
| CCN1c2cc(C(=O)Nc3ccc(C)cc3)ccc2C(=O)N2CCCCCC21 (stereo not given) | inconclusive: 50.1 µM [inhibitor, partial curve, poor fit] |
| CCS(=O)(=O)C(C)C(=O)Nc1ccc(OC)c(NC(=O)c2ccco2)c1 (stereo not given) | inactive |
| CC(C)(C(=O)N1Cc2cnn(Cc3ccc(F)cc3)c2C1)c1ccccc1 | inconclusive: 50.1 µM [inhibitor, partial curve, poor fit] |
| CCOc1ccc(NC(=O)Cn2nc3c(cc2=O)CCCCC3)cc1 | inconclusive: 50.1 µM [inhibitor, partial curve, poor fit] |
| Cc1noc([C@@H]2CN(Cc3ccccc3C#N)C[C@H]2C(N)=O)n1 | inactive |
| CCCn1cc(C(=O)N[C@@H]2COCC[C@H]2Oc2ccc(C#N)cc2)c(C)n1 | inactive |
| COCCn1cnc2ccc(-c3ccccc3Oc3ccccc3)nc2c1=O | inconclusive: 10 µM [inhibitor, full curve, poor fit] |
| COc1cc(Cl)ccc1C(=O)N1CCC(Cc2nc(-c3ccc(F)cc3)no2)CC1 | active: 11.2 µM |
| CCC1Oc2ccc(NS(=O)(=O)c3ccc(C)c(F)c3)cc2CN(Cc2ccc(OC)cc2)C1=O (stereo not given) | active: 25.1 µM |
| O=C(NCc1cccnc1)C1CCN(c2nc(-c3ccccc3)nc3c2CCC3)CC1 | inconclusive: 56.2 µM [inhibitor, partial curve, poor fit] |
| O=S(=O)(c1ccc2c(c1)CCC2)N1CCCC(Cn2c(C3CC3)nc3cccnc32)C1 (stereo not given) | inactive |
| COc1ccccc1Nc1ccnc(N2CCC(NC(=O)c3ccccc3F)CC2)n1 | inactive |
| O=C1NC(=NC2CCCC2)C2(CCCN(CC3CC3)C2)N1c1cccnc1 (stereo not given) | inconclusive: 20 µM [inhibitor, full curve, poor fit] |
| CCOC(=O)C1CCCN(C(=O)C2CCc3nnc(-c4cccc(C(F)(F)F)c4)n32)C1 (stereo not given) | inconclusive: 79.4 µM [inhibitor, partial curve, poor fit] |
| Cc1cc(C(=O)N(CCC(=O)NCCC(C)C)CCC(C)C)c(C)o1 | inconclusive: 70.8 µM [inhibitor, single point] |
| O=C(Nc1ccc(F)cc1)C1CCc2nnc(C3CC3)n21 (stereo not given) | inactive |
| COc1ccc(CN2CC(Oc3ccc(F)c(C)c3)C2)cc1 | inconclusive: 44.7 µM [inhibitor, partial curve, poor fit] |
| O=C(NC1CCCc2c1[nH]c1c(Cl)cccc21)c1ccncc1 (stereo not given) | inactive |
| COc1ccc(-n2nc(C)c([C@@H]3C=C[C@@H](NCc4cccc(Cl)c4)C3)c2C)cc1 | active: 25.1 µM |
| COc1ccc(-c2ccc3ncc(Nc4cccc(O)c4)n3n2)cc1OC | inconclusive: 20 µM [inhibitor, full curve, poor fit] |

| SMILES | Potency |
| --- | --- |
| Cc1nn(-c2ccccc2)c2c1C(C1CC1)N(C1CN(C(=O)c3ccc(C(F)(F)F)cc3)C1)C2=O (stereo not given) | inactive |
| COCCN1C(=O)CC[C@]2(C(=O)NCc3ccccc3C)CCCC[C@@H]12 | inactive |
| COc1ccc(-c2cc(C(=O)N3C[C@@H](Oc4ccccc4)C[C@H]3C(=O)NC3CC3)[nH]n2)cc1 | inactive |
| O=C(NCCNC(=O)c1ccccc1Cl)c1ccc(-c2cccc(C(F)(F)F)c2)cc1 | inactive |
| COCCN1Cc2ccc(NCc3ccccc3)nc2C(C)(C(=O)NC2CCOCC2)C1 (stereo not given) | inconclusive: 50.1 µM [inhibitor, full curve, poor fit] |
| C[S+](=O)([O-])c1ccc(-c2cnc3n[nH]c(-c4ccccc4)c3n2)cc1 | inconclusive: 100 µM [inhibitor, partial curve, poor fit] |
| COc1cccc(N2C(=O)NC(=NC3CCCCC3)C23CCN([S+](=O)([O-])c2c(C)noc2C)C3)c1 (stereo not given) | inactive |
| CC(C)C(=O)N1CCCC1Cc1noc(Cc2ccccc2)n1 (stereo not given) | inactive |
| Cc1cccc(-c2cccc(CN3CCC(NC(=O)Cc4cccc(Cl)c4)CC3)c2)c1 | active: 14.1 µM |
| Cc1ccc(Cl)cc1NC(=O)CN1C(=O)NC2(CCCCC2)C1=O | inconclusive: 70.8 µM [inhibitor, single point] |
| CC(=O)N1CCN(C(=O)C2CCN(Cc3ccccc3-c3cccnc3)CC2)CC1 | inactive |
| O=C(NCc1ccc(Cl)cc1)c1cc2cccnn2n1 | inconclusive: 63.1 µM [inhibitor, partial curve, poor fit] |
| Cc1nc2cccnc2n1CC1CCCN(S(=O)(=O)c2ccc(C(C)C)cc2)C1 (stereo not given) | inconclusive: 20 µM [inhibitor, partial curve] |
| Cn1cccc1C(=O)N[C@H]1CCN2C(=O)N(c3cccc(F)c3)C(=O)[C@@H]2C1 | inconclusive: 35.5 µM [inhibitor, partial curve, poor fit] |
| COC(=O)N1CCN(c2nccc(Nc3ccccc3OC)n2)CC1 | inconclusive: 44.7 µM [inhibitor, partial curve, poor fit] |
| COCCN(CCOC)C(=O)C(C)[C@@H]1CC[C@@]2(C)CC[C@H](NC(C)=O)[C@@H](C)[C@@H]2[C@H]1O (stereo not given in full) | inactive |
| Cn1cc(-c2cnc3[nH]cc(CC(=O)Nc4cccnc4)c3c2)cn1 | inconclusive: 50.1 µM [inhibitor, partial curve, poor fit] |
| CSc1ccc(-c2ccc3c(c2)C(=O)N2CCN(C(=O)CC(C)(C)C)C[C@@H]2C(=O)N3)cc1 | inconclusive: 50.1 µM [inhibitor, partial curve, poor fit] |
| Cc1ccc(CN2C(=O)COC[C@H]2C(=O)Nc2ccc(C)c(F)c2)cc1 | inconclusive: 44.7 µM [inhibitor, partial curve, poor fit] |
| O=C(CN1CCCCC1)N1CCCC(N2CCN(Cc3ccc4c(c3)OCO4)CC2)C1 (stereo not given) | inconclusive: 50.1 µM [inhibitor, partial curve, poor fit] |
| COCCCN1C(=O)CC[C@H]2CN(Cc3cc(CC(C)C)n[nH]3)CC[C@H]21 | inconclusive: 44.7 µM [inhibitor, partial curve, poor fit] |
